{
  "source": "PubChem BioAssay AID2147",
  "about": "(National Center for Advancing Translational Sciences (NCATS), 2009)",
  "note": "Hit rate of the full screen: of about 230,000 compounds, about 3,600 (1.6%) were called active. Inconclusive means that the source gave no clear call. Such entries were picked first, then a sample of the others. Calls come from the whole dose curve; as a rule, active = well fitted inhibition curve with a large enough effect (not every such curve was filed as active); inconclusive = small, poorly fitted or top-dose-only effect, or another doubt; inactive = no such curve, though single readings can be large or run the other way. A potency beside an inconclusive call is a rough fit, not a confirmed value. Note: nearly all actives have a fitted effect of over 50% in size. Potency is the fitted concentration of half-maximal effect; tags give direction and shape of the fitted curve.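 Throughout, for activity change, negative = inhibition: 0% = wells with enzyme and -100% = buffer wells without enzyme.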",
  "data": [
    {"biological_target": "Lysine-specific demethylase 4E (Homo sapiens) (UniProt B2RXH2)", "sequence (B2RXH2 whole entry, looked up, the tested form may be a part)": "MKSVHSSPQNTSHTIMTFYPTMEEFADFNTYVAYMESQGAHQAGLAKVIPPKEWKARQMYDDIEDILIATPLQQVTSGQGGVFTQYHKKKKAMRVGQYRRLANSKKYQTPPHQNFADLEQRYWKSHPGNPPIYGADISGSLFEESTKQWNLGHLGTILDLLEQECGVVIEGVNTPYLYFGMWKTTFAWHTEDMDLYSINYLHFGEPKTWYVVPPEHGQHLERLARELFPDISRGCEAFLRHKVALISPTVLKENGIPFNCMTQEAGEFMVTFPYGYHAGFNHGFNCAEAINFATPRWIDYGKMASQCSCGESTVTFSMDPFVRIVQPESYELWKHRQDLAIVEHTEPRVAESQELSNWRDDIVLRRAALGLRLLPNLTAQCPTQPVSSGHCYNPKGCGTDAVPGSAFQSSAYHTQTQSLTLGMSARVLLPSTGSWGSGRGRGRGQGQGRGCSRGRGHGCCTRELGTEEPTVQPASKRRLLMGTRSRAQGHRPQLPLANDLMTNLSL", "test": "qHTS Assay for Inhibitors of Human Jumonji Domain Containing 2E (JMJD2E)", "conditions": "JMJD2E catalytic domain, FDH-coupled NADH fluorescence (FDH is formaldehyde dehydrogenase); series mostly up to 57.1 µM; activity change, negative = inhibition: at the top concentration", "values": [
      {"smiles": "CCNC(=S)N1CCN(C(c2ccccc2)c2ccccc2)CC1", "activity change, negative = inhibition": "inactive: -0.686%"},
      {"smiles": "CC(C)(C)c1ccc(OC(=O)Nc2ccc(O)c(C(=O)O)c2)cc1", "Potency": "inconclusive: 28.2 µM [inhibitor, partial curve]"},
      {"smiles": "NCCC[C@@H](CC(=O)N[C@@H]1CCNC[C@H]1C(=O)N[C@H](CC(=O)N[C@@H](CCC(=O)O)CC(=O)O)Cc1c[nH]c2ccccc12)NC(=O)C[C@H](CO)NC(=O)[C@@H]1CCCC[C@H]1N", "activity change, negative = inhibition": "inactive: -3.2%"},
      {"smiles": "COc1ccc(/C=C(\\C#N)C(=O)ONC2=NCCCCC2)cc1", "Potency": "inconclusive: 35.5 µM [inhibitor, single point]"},
      {"smiles": "Cc1cccc(Cc2c(C)nc3c(C(=O)N4CCN(Cc5ccc6c(c5)OCO6)CC4)cnn3c2C)c1", "Potency": "inconclusive: 28.2 µM [inhibitor, partial curve]"},
      {"smiles": "O=c1c2cc3c(=O)n(-c4ccccc4O)c(=O)c3cc2c(=O)n1-c1ccccc1O", "Potency": "inconclusive: 39.8 µM [inhibitor, partial curve, poor fit]"},
      {"smiles": "COc1cc(/C=N/NC(=O)c2ccc(CSc3nc4ccccc4[nH]3)cc2)cc(OC)c1OC", "activity change, negative = inhibition": "inactive: -5.26%"},
      {"smiles": "O=C(c1ccc2c3c(cccc13)CC2)C1CCCN(Cc2cccnc2)C1", "note": "(stereo unspecified)", "Potency": "inconclusive: 25.1 µM [inhibitor, partial curve]"},
      {"smiles": "Cc1nnc(NC(=O)c2ccc(-c3cccc(C(F)(F)F)c3)o2)s1", "Potency": "inconclusive: 25.1 µM [inhibitor, single point]"},
      {"smiles": "CCCCCCCCCCCCCCCC[n+]1ccc(/C=N/O)cc1", "activity change, negative = inhibition": "inactive: -2.28%"},
      {"smiles": "C/C(=N\\NC(=O)CNc1cccc(C(F)(F)F)c1)c1ccc(Br)cc1", "activity change, negative = inhibition": "inactive: -3.98%"},
      {"smiles": "O=C(c1ccc2c3c(cccc13)CC2)C1CCCN(C(=O)c2ccc(=O)[nH]c2)C1", "note": "(stereo unspecified)", "Potency": "inconclusive: 28.2 µM [inhibitor, partial curve]"},
      {"smiles": "O=C(Nc1ccc(N2CCN(C(=O)c3ccco3)CC2)cc1)c1ccccc1F", "Potency": "inconclusive: 35.5 µM [inhibitor, single point]"},
      {"smiles": "COc1ccc(Br)cc1-c1nc(C)c(C(C)=O)n1O", "activity change, negative = inhibition": "inactive: -4.45%"},
      {"smiles": "C=CCn1c(CCC(=O)O)ccc1-c1ccc(OC)cc1", "Potency": "inconclusive: 28.2 µM [inhibitor, partial curve]"},
      {"smiles": "FC(F)(F)c1cccc(Cc2noc(CN3CCC(c4ccncc4)CC3)n2)c1", "activity change, negative = inhibition": "inactive: -7.49%"},
      {"smiles": "Cc1cccc(S(=O)(=O)c2c(N)n(-c3ccccc3)c3nc4ccccc4nc23)c1", "Potency": "inconclusive: 8.91 µM [inhibitor, partial curve]"},
      {"smiles": "COCCNC(=S)N/N=C1\\CC(C)CC(C)(C)C1", "note": "(stereo unspecified)", "Potency": "inconclusive: 39.8 µM [inhibitor, single point]"},
      {"smiles": "COc1cc(-c2nc(-c3ccccc3)c(-c3ccc(F)cc3)[nH]2)cc2c1OCO2", "Potency": "inconclusive: 28.2 µM [inhibitor, partial curve]"},
      {"smiles": "CCn1cnc2cc(NCc3ccc(N(C)C)cc3)ccc21", "Potency": "inconclusive: 31.6 µM [inhibitor, partial curve]"},
      {"smiles": "O=C(NC(=S)Nc1ccc(N2CCOCC2)c(Cl)c1)c1cncc(Br)c1", "activity change, negative = inhibition": "inactive: -2.24%"},
      {"smiles": "O=c1c(O)c(-c2cccs2)oc2ccccc12", "Potency": "inconclusive: 25.1 µM [inhibitor, single point]"},
      {"smiles": "Cc1ccc(Nc2nc(-c3sc(NC(=O)c4ccc([N+](=O)[O-])cc4)nc3C)cs2)cc1", "activity change, negative = inhibition": "inactive: 6.5%"},
      {"smiles": "Cc1c(C(=O)Nc2ccc(Br)cc2)cnn1C", "activity change, negative = inhibition": "inactive: 9.74%"},
      {"smiles": "Nc1ccc(-c2sc(N)nc2-c2ccccc2)cc1", "Potency": "inconclusive: 35.5 µM [inhibitor, single point]"},
      {"smiles": "O=C(Nc1cccc(C(=O)N2CCOCC2)c1)c1ncn[nH]1", "activity change, negative = inhibition": "inactive: 2.49%"},
      {"smiles": "CCOc1ccc(C(=O)Nc2cc(-c3nc4ccccc4[nH]3)ccc2Cl)cc1[N+](=O)[O-]", "activity change, negative = inhibition": "inactive: -7.8%"},
      {"smiles": "CCN(CC)S(=O)(=O)c1ccc(Cl)c(NC(=O)COC(=O)/C=C/c2ccc(O)c(OC)c2)c1", "Potency": "inconclusive: 31.6 µM [inhibitor, partial curve]"},
      {"smiles": "O=c1ccc(C(F)(F)F)cn1Cc1cc(=O)n2ccsc2n1", "Potency": "inconclusive: 39.8 µM [inhibitor, single point]"},
      {"smiles": "O=C(ONC1=NCCCCC1)c1c(F)cccc1F", "activity change, negative = inhibition": "inactive: -4.16%"},
      {"smiles": "COC(=O)c1cc(C#N)c(N2CC(C)OC(C)C2)nc1C", "note": "(stereo unspecified)", "Potency": "inconclusive: 17.8 µM [inhibitor, partial curve]"},
      {"smiles": "CCOc1ccc(C(CC(=O)O)NC(=O)c2cccs2)cc1OC", "note": "(stereo unspecified)", "activity change, negative = inhibition": "inactive: 7.25%"},
      {"smiles": "CCOc1ccccc1NS(=O)(=O)c1cn(C)c(=O)n(C)c1=O", "activity change, negative = inhibition": "inactive: 2.32%"},
      {"smiles": "CCCNC(=S)N(Cc1ccccc1)Cc1nc2ccccc2c(=O)[nH]1", "Potency": "inconclusive: 31.6 µM [inhibitor, partial curve]"},
      {"smiles": "COC(=O)c1ccc(C(=O)OC)c(NC(=S)N2CCC(C)CC2)c1", "Potency": "inconclusive: 31.6 µM [inhibitor, partial curve]"},
      {"smiles": "Cc1cc(C)c2cc(C#N)c(NCCOC(=O)c3ccccc3C)nc2c1", "Potency": "inconclusive: 31.6 µM [inhibitor, partial curve]"},
      {"smiles": "Cc1cc(C)c(NC(=O)COC(=O)/C=C/c2cccs2)c(C)c1", "Potency": "inconclusive: 31.6 µM [inhibitor, single point]"},
      {"smiles": "Clc1ccc(-c2n[nH]c3c2CCC3)c(Cl)c1", "activity change, negative = inhibition": "inactive: 3.43%"},
      {"smiles": "O=C(O)c1cccc(NC(=O)c2cccc(S(=O)(=O)N3CCc4ccccc4C3)c2)c1", "activity change, negative = inhibition": "inactive: 10.7%"},
      {"smiles": "CCn1cc(/C=N\\NC(=O)c2ccc3c(c2)c(C)c(C)n3Cc2ccccc2)c(C)n1", "Potency": "inconclusive: 35.5 µM [inhibitor, single point]"},
      {"smiles": "Cc1cc(C)nc(NC(=O)CSc2nnnn2-c2ccccc2)n1", "activity change, negative = inhibition": "inactive: 6.22%"},
      {"smiles": "Oc1c(C(Nc2ccccn2)c2ccccn2)ccc2cccnc12", "note": "(stereo unspecified)", "Potency": "inconclusive: 22.4 µM [inhibitor, single point]"},
      {"smiles": "CCOCC(=O)Nc1cccc(Br)c1", "activity change, negative = inhibition": "inactive: -2.22%"},
      {"smiles": "COc1ccc(C(CC(=O)N2CCCCC2)c2c(OC)cc(OC)c3c(-c4ccccc4)cc(=O)oc23)cc1", "note": "(stereo unspecified)", "Potency": "inconclusive: 35.5 µM [inhibitor, single point]"},
      {"smiles": "Cc1ccccc1Cn1cc(NC(=O)c2cc(-c3cccs3)on2)cn1", "Potency": "inconclusive: 39.8 µM [inhibitor, single point]"},
      {"smiles": "Cc1cc(N2CCN(c3ccccc3)CC2)n2c(n1)nc1ccccc12", "Potency": "inconclusive: 20 µM [inhibitor, partial curve]"},
      {"smiles": "Cc1ccc(S(=O)(=O)NCC(=O)NCC(=O)N2CCN(c3ncccn3)CC2)cc1C", "Potency": "inconclusive: 28.2 µM [inhibitor, single point]"},
      {"smiles": "COc1ccccc1NS(=O)(=O)c1cccc(NC(=O)NCCCl)c1", "Potency": "inconclusive: 39.8 µM [inhibitor, single point]"},
      {"smiles": "CCOC(=O)C1=C(C)NC(C)=C(C(=O)OCC)C1c1ccc(OC)cc1", "Potency": "inconclusive: 25.1 µM [inhibitor, single point]"},
      {"smiles": "Cn1c2ccc(F)cc2c2ncn(Cc3ccco3)c(=O)c21", "Potency": "inconclusive: 28.2 µM [inhibitor, partial curve]"},
      {"smiles": "COC(=O)c1ccc(NC(=O)CCOc2ccccc2)cc1", "Potency": "inconclusive: 39.8 µM [inhibitor, single point]"},
      {"smiles": "CCOC(=O)c1sc(NC(=O)COC(=O)CNC(=O)c2ccco2)c(C(=O)OCC)c1C", "Potency": "inconclusive: 35.5 µM [inhibitor, single point]"},
      {"smiles": "Cc1ccc(N=Nc2c(N)[nH]n3c(=O)cc(-c4ccccc4)nc23)cc1", "activity change, negative = inhibition": "inactive: 7.71%"},
      {"smiles": "Cc1nc(NC(=O)c2ccccc2)sc1C1(C)CC(c2c(Cl)cccc2Cl)=NO1", "note": "(stereo unspecified)", "Potency": "inconclusive: 35.5 µM [inhibitor, single point]"},
      {"smiles": "CCOC(=O)N1CCN(Cc2cc(Cl)c3cccnc3c2O)CC1", "activity change, negative = inhibition": "inactive: -2.71%"},
      {"smiles": "Cc1ccc(NC(=O)CSC(N)=O)cc1Cl", "activity change, negative = inhibition": "inactive: -1.94%"},
      {"smiles": "CCCCc1ccc(NC(=O)c2ccc(NS(C)(=O)=O)cc2)cc1", "Potency": "inconclusive: 39.8 µM [inhibitor, single point]"},
      {"smiles": "O=C(Nc1ccc2oc(-c3ccncc3)nc2c1)c1ccccc1", "Potency": "inconclusive: 31.6 µM [inhibitor, partial curve]"},
      {"smiles": "CN(C)c1ccc(N=Nc2ccccc2C(=O)OCC(=O)NC2CCCC2)cc1", "activity change, negative = inhibition": "inactive: -6.49%"},
      {"smiles": "Nc1nonc1-c1noc(N2CCCCC2)n1", "activity change, negative = inhibition": "inactive: 4.89%"},
      {"smiles": "CCOC(=O)C1Sc2ccccc2NC1=O", "note": "(stereo unspecified)", "Potency": "inconclusive: 4.47 µM [inhibitor, single point]"},
      {"smiles": "COc1cc2c(cc1OC)CN(CC(=O)NC(=O)NCc1ccco1)CC2", "Potency": "inconclusive: 31.6 µM [inhibitor, partial curve]"},
      {"smiles": "Cc1nc(C)c(-c2csc(Nc3cccnc3)n2)s1", "Potency": "inconclusive: 39.8 µM [inhibitor, single point]"},
      {"smiles": "COc1cc(-c2nc(Cc3ccccc3Cl)no2)cc(OC)c1OC", "Potency": "inconclusive: 39.8 µM [inhibitor, single point]"},
      {"smiles": "COC(=O)C1=C(C)NC(C)=C(C(=O)OC)C1c1cc2cc(C)ccc2[nH]c1=O", "Potency": "inconclusive: 25.1 µM [inhibitor, partial curve]"},
      {"smiles": "N#Cc1nc(COc2ccc(-c3ccccc3)cc2)oc1NCCCN1CCOCC1", "activity change, negative = inhibition": "inactive: 13.3%"},
      {"smiles": "COc1cccc(Nc2nc(NCCO)c3ccccc3n2)c1", "Potency": "inconclusive: 39.8 µM [inhibitor, single point]"},
      {"smiles": "CCCN(Cc1cc2ccc(C)cc2[nH]c1=O)S(=O)(=O)c1ccccc1", "Potency": "inconclusive: 39.8 µM [inhibitor, single point]"},
      {"smiles": "COCCn1c(=NC(=O)c2ccc(S(=O)(=O)N3CCc4ccccc4C3)cc2)sc2cc(S(N)(=O)=O)ccc21", "Potency": "active: 3.98 µM"},
      {"smiles": "Cc1cc2cc(CCNS(C)(=O)=O)c(=O)[nH]c2cc1C", "Potency": "inconclusive: 31.6 µM [inhibitor, single point]"},
      {"smiles": "O=C(CSCc1nc2ccccc2[nH]1)N1CCN(c2ccc(F)cc2)CC1", "activity change, negative = inhibition": "inactive: 2.23%"}
    ]}
  ]
}
